# In the supplement of paper PMC8728848:
# Some of the results follow.
# Assays:
# Test in all cases: glycan array binding signal (z-score within array); higher = stronger binding
# Settings in all cases: glycan notation: IUPAC condensed, linker removed
# Fuc(a1-2)Gal = biological target: Fuc(a1-2)Gal
# Summary of the method: (§1)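 The binding signal is a Z-score computed within each array and averaged over linkers. Arrays of the same protein sequence at different concentrations or buffers were also averaged together. Data originate from 3228 arrays in the Consortium for Functional Glycomics database, kept only where the protein sequence was available.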
# Fuc(a1-2)Gal(b1-3)GalNAc = biological target: Fuc(a1-2)Gal(b1-3)GalNAc
# Summary of the method: as §1
# [1] = biological target: Fuc(a1-2)Gal(b1-3)GalNAc(a1-3)[Fuc(a1-2)]Gal(b1-4)Glc
# Summary of the method: as §1
# [2] = biological target: Fuc(a1-2)Gal(b1-3)GalNAc(a1-3)[Fuc(a1-2)]Gal(b1-4)GlcNAc
# Summary of the method: as §1
# [3] = biological target: Fuc(a1-2)Gal(b1-3)GalNAc(b1-3)Gal
# Summary of the method: as §1
# [4] = biological target: Fuc(a1-2)Gal(b1-3)GalNAc(b1-3)Gal(a1-4)Gal(b1-4)Glc
# Summary of the method: as §1
# [5] = biological target: Fuc(a1-2)Gal(b1-3)GalNAc(b1-4)[Neu5Ac(a2-3)]Gal(b1-4)Glc
# Summary of the method: as §1
# Fuc(a1-2)Gal(b1-3)GlcNAc = biological target: Fuc(a1-2)Gal(b1-3)GlcNAc
# Summary of the method: as §1
# [6] = biological target: Fuc(a1-2)Gal(b1-3)GlcNAc(b1-2)Man(a1-3)[Fuc(a1-2)Gal(b1-3)GlcNAc(b1-2)Man(a1-6)]Man(b1-4)GlcNAc(b1-4)GlcNAc
# Summary of the method: as §1
# [7] = biological target: Fuc(a1-2)Gal(b1-3)GlcNAc(b1-2)Man(a1-3)[Fuc(a1-2)Gal(b1-3)GlcNAc(b1-2)Man(a1-6)]Man(b1-4)GlcNAc(b1-4)[Fuc(a1-6)]GlcNAc
# Summary of the method: as §1
# [8] = biological target: Fuc(a1-2)Gal(b1-3)GlcNAc(b1-3)Gal(b1-4)Glc
# Summary of the method: as §1
# [9] = biological target: Fuc(a1-2)Gal(b1-3)GlcNAc(b1-3)GalNAc
# Summary of the method: as §1
# [10] = biological target: Fuc(a1-2)Gal(b1-3)GlcNAc(b1-3)[Fuc(a1-2)Gal(b1-3)GlcNAc(b1-6)]GalNAc
# Summary of the method: as §1
# [11] = biological target: Fuc(a1-2)Gal(b1-3)GlcNAc(b1-3)[Gal(b1-4)GlcNAc(b1-6)]Gal(b1-4)Glc
# Summary of the method: as §1
# [12] = biological target: Fuc(a1-2)Gal(b1-3)GlcNAc(b1-3)[Neu5Ac(a2-6)Gal(b1-4)GlcNAc(b1-6)]Gal(b1-4)Glc
# Summary of the method: as §1
# [13] = biological target: Fuc(a1-2)Gal(b1-3)GlcNAc6S
# Summary of the method: as §1
# [14] = biological target: Fuc(a1-2)Gal(b1-3)[Fuc(a1-4)]GlcNAc
# Summary of the method: as §1
# [15] = biological target: Fuc(a1-2)Gal(b1-3)[Fuc(a1-4)]GlcNAc(b1-2)Man(a1-3)[Fuc(a1-2)Gal(b1-3)[Fuc(a1-4)]GlcNAc(b1-2)Man(a1-3)]Man(b1-4)GlcNAc(b1-4)GlcNAc
# Summary of the method: as §1
# [16] = biological target: Fuc(a1-2)Gal(b1-3)[Fuc(a1-4)]GlcNAc(b1-2)Man(a1-3)[Fuc(a1-2)Gal(b1-3)[Fuc(a1-4)]GlcNAc(b1-2)Man(a1-6)]Man(b1-4)GlcNAc(b1-4)[Fuc(a1-6)]GlcNAc(b1-4)[Fuc(a1-6)]GlcNAc
# Summary of the method: as §1
# [17] = biological target: Fuc(a1-2)Gal(b1-3)[Fuc(a1-4)]GlcNAc(b1-3)[Fuc(a1-3)[Gal(b1-4)]GlcNAc(b1-6)]Gal(b1-4)Glc
# Summary of the method: as §1
# [18] = biological target: Fuc(a1-2)Gal(b1-3)[Fuc(a1-4)]GlcNAc(b1-3)[Gal(b1-4)GlcNAc(b1-6)]Gal(b1-4)Glc
# Summary of the method: as §1
# [19] = biological target: Fuc(a1-2)Gal(b1-4)Fuc(a1-3)]GlcNAc(b1-2)Man(a1-3)[Fuc(a1-2)Gal(b1-4)[Fuc(a1-3)]GlcNAc(b1-2)Man(a1-6)]Man(b1-4)GlcNAc(b1-4)GlcNAc
# Summary of the method: as §1
# Fuc(a1-2)Gal(b1-4)Glc = biological target: Fuc(a1-2)Gal(b1-4)Glc
# Summary of the method: as §1
# Fuc(a1-2)Gal(b1-4)Glc6S = biological target: Fuc(a1-2)Gal(b1-4)Glc6S
# Summary of the method: as §1
# Fuc(a1-2)Gal(b1-4)GlcNAc = biological target: Fuc(a1-2)Gal(b1-4)GlcNAc
# Summary of the method: as §1
# [20] = biological target: Fuc(a1-2)Gal(b1-4)GlcNAc(b1-2)Man
# Summary of the method: as §1
# [21] = biological target: Fuc(a1-2)Gal(b1-4)GlcNAc(b1-2)Man(a1-3)[Fuc(a1-2)Gal(b1-4)GlcNAc(b1-2)Man(a1-6)]Man(b1-4)GlcNAc(b1-4)GlcNAc
# Summary of the method: as §1
# [22] = biological target: Fuc(a1-2)Gal(b1-4)GlcNAc(b1-2)Man(a1-3)[Fuc(a1-2)Gal(b1-4)GlcNAc(b1-2)Man(a1-6)]Man(b1-4)GlcNAc(b1-4)[Fuc(a1-6)]GlcNAc
# Summary of the method: as §1
# [23] = biological target: Fuc(a1-2)Gal(b1-4)GlcNAc(b1-2)[Fuc(a1-2)Gal(b1-4)GlcNAc(b1-4)]Man(a1-3)[Fuc(a1-2)Gal(b1-4)GlcNAc(b1-2)Man(a1-6)]Man(b1-4)GlcNAc(b1-4)GlcNAc
# Summary of the method: as §1
# [24] = biological target: Fuc(a1-2)Gal(b1-4)GlcNAc(b1-3)Gal(b1-4)GlcNAc
# Summary of the method: as §1
# [25] = biological target: Fuc(a1-2)Gal(b1-4)GlcNAc(b1-3)Gal(b1-4)GlcNAc(b1-2)Man(a1-3)[Fuc(a1-2)Gal(b1-4)GlcNAc(b1-3)Gal(b1-4)GlcNAc(b1-2)Man(a1-6)]Man(b1-4)GlcNAc(b1-4)GlcNAc
# Summary of the method: as §1
# [26] = biological target: Fuc(a1-2)Gal(b1-4)GlcNAc(b1-3)Gal(b1-4)GlcNAc(b1-3)Gal(b1-4)GlcNAc
# Summary of the method: as §1
# [27] = biological target: Fuc(a1-2)Gal(b1-4)GlcNAc(b1-3)GalNAc
# Summary of the method: as §1
# [28] = biological target: Fuc(a1-2)Gal(b1-4)GlcNAc(b1-3)[Fuc(a1-2)Gal(b1-4)GlcNAc(b1-6)]GalNAc
# Summary of the method: as §1
# [29] = biological target: Fuc(a1-2)Gal(b1-4)GlcNAc(b1-3)[Fuc(a1-3)[Gal(b1-4)]GlcNAc(b1-6)]Gal(b1-4)Glc
# Summary of the method: as §1
# [30] = biological target: Fuc(a1-2)Gal(b1-4)GlcNAc(b1-6)GalNAc
# Summary of the method: as §1
# [31] = biological target: Fuc(a1-2)Gal(b1-4)GlcNAc6S
# Summary of the method: as §1
# [32] = biological target: Fuc(a1-2)Gal(b1-4)[Fuc(a1-3)]GlcNAc
# Summary of the method: as §1
# [33] = biological target: Fuc(a1-2)Gal(b1-4)[Fuc(a1-3)]GlcNAc(b1-2)Man(a1-3)[Fuc(a1-2)Gal(b1-4)[Fuc(a1-3)]GlcNAc(b1-2)Man(a1-6)]Man(b1-4)GlcNAc(b1-4)[Fuc(a1-6)]GlcNAc
# Summary of the method: as §1
# [34] = biological target: Fuc(a1-2)Gal(b1-4)[Fuc(a1-3)]GlcNAc(b1-2)[Fuc(a1-2)Gal(b1-4)[Fuc(a1-3)]GlcNAc(b1-4)]Man(a1-3)[Fuc(a1-2)Gal(b1-4)[Fuc(a1-3)]GlcNAc(b1-2)Man(a1-6)]Man(b1-4)GlcNAc(b1-4)GlcNAc
# Summary of the method: as §1
# [35] = biological target: Fuc(a1-2)Gal(b1-4)[Fuc(a1-3)]GlcNAc(b1-3)Gal(b1-4)[Fuc(a1-3)]GlcNAc
# Summary of the method: as §1
# [36] = biological target: Fuc(a1-2)Gal(b1-4)[Fuc(a1-3)]GlcNAc(b1-3)Gal(b1-4)[Fuc(a1-3)]GlcNAc(b1-3)Gal(b1-4)[Fuc(a1-3)]GlcNAc
# Summary of the method: as §1
# [37] = biological target: Fuc(a1-2)Gal(b1-4)[Fuc(a1-3)]GlcNAc(b1-3)GalNAc
# Summary of the method: as §1
# [38] = biological target: Fuc(a1-2)Gal(b1-4)[Fuc(a1-3)]GlcNAc(b1-3)[Neu5Ac(a2-6)Gal(b1-4)GlcNAc(b1-6)]Gal(b1-4)Glc
# Summary of the method: as §1
# [39] = biological target: Fuc(a1-2)Gal3S(b1-4)GlcNAc
# Summary of the method: as §1
binder,measurement,setting,value
PX9961A-pdi-456-24-456 (Parabacteroides distasonis) (protein) KTSSTQLPTIDAISSVADLTNAVNGVYEQQATEVGSYGAEFTLLADLRSGDFQSISTVNHAGPMYRYQTGKNDEMVYSFYKLFYNSLARLNNVLAAAENLEGADVDILKGELYAMRALYHFDLARVFAKLPSTTDMNDLGIVLSTEVYPTDYIGTRATLQQTYDQILKDIETALPLLSKDKQTGHINYWGALAIRARAYLYLEKNKEALADCKEIIASSPYKLYTRDEYIGAWDKEGTNEAIFEILVTPNYNAQRNSIGYFTHASGYGECAATESFLEELAKHPGDIRTELFAKETDNGYDGTYPQKYKGRDGQIYVNNPKVVRLSEVYLIAAEAALKAGDTSAAAGYMNTLRKNRIENYTDVASITLDDILLERRLELFTEGHTAWDAWRNGKSVNNKFVGEVKPGDYRTIMAIPIGEITVSRGQLIQNPGY,glycan array binding signal (z-score),Fuc(a1-2)Gal,-0.421
same,glycan array binding signal (z-score),Fuc(a1-2)Gal(b1-3)GalNAc,-0.251
same,glycan array binding signal (z-score),[1],-0.331
same,glycan array binding signal (z-score),[2],-0.512
same,glycan array binding signal (z-score),[3],-0.487
same,glycan array binding signal (z-score),[4],-0.216
same,glycan array binding signal (z-score),[5],-0.355
same,glycan array binding signal (z-score),Fuc(a1-2)Gal(b1-3)GlcNAc,-0.333
same,glycan array binding signal (z-score),[6],-0.154
same,glycan array binding signal (z-score),[7],-0.384
same,glycan array binding signal (z-score),[8],-0.276
same,glycan array binding signal (z-score),[9],-0.082
same,glycan array binding signal (z-score),[10],-0.086
same,glycan array binding signal (z-score),[11],-0.124
same,glycan array binding signal (z-score),[12],0.197
same,glycan array binding signal (z-score),[13],0.178
same,glycan array binding signal (z-score),[14],-0.249
same,glycan array binding signal (z-score),[15],0.484
same,glycan array binding signal (z-score),[16],0.196
same,glycan array binding signal (z-score),[17],-0.396
same,glycan array binding signal (z-score),[18],-0.071
same,glycan array binding signal (z-score),[19],0.209
same,glycan array binding signal (z-score),Fuc(a1-2)Gal(b1-4)Glc,-0.371
same,glycan array binding signal (z-score),Fuc(a1-2)Gal(b1-4)Glc6S,-0.312
same,glycan array binding signal (z-score),Fuc(a1-2)Gal(b1-4)GlcNAc,-0.365
same,glycan array binding signal (z-score),[20],-0.263
same,glycan array binding signal (z-score),[21],-0.237
same,glycan array binding signal (z-score),[22],-0.38
same,glycan array binding signal (z-score),[23],-0.13
same,glycan array binding signal (z-score),[24],-0.394
same,glycan array binding signal (z-score),[25],0.01
same,glycan array binding signal (z-score),[26],-0.148
same,glycan array binding signal (z-score),[27],-0.462
same,glycan array binding signal (z-score),[28],0.213
same,glycan array binding signal (z-score),[29],-0.716
same,glycan array binding signal (z-score),[30],0.583
same,glycan array binding signal (z-score),[31],-0.015
same,glycan array binding signal (z-score),[32],0.01
same,glycan array binding signal (z-score),[33],0.31
same,glycan array binding signal (z-score),[34],0.645
same,glycan array binding signal (z-score),[35],-0.191
same,glycan array binding signal (z-score),[36],0.615
same,glycan array binding signal (z-score),[37],0.737
same,glycan array binding signal (z-score),[38],-0.278
same,glycan array binding signal (z-score),[39],-0.639
